# Among all 45,000 compounds or so, about 200 (0.44%) were called active. Another 7% or so got no clear call; they are omitted. Calls come from the whole dose curve; as a rule, active = well fitted activation curve with a large enough effect; inconclusive = small, poorly fitted or top-dose-only effect; inactive = no such curve, though single readings can be large or run the other way. Some of the results follow.
# Test: qHTS of TDP-43 Inhibitors: NCGC Sytravon Library Screen; note: 0% is about no effect; nearly all actives have a fitted effect of over 55% in size
# Conditions: yeast TDP-43 toxicity rescue, BacTiter-Glo growth, 24 h; series mostly up to 46.1 µM; growth rescue (activation): at the top concentration
# Summary of the method: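 TDP-43-expressing yeast, pregrown in raffinose, seeded at OD600 0.02 in galactose medium with compound for 24 hr at 30 deg C. Growth read by BacTiter-Glo luminescence, so rescue of toxicity appears as activation.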
row,Structure (SMILES),growth rescue (activation)
1,COc1cc(/C=C2\CC/C(=C\c3cc(OC)c(O)c(OC)c3)C2=O)cc(OC)c1O,inactive: -22.2%
2,Cc1ccccc1NC(=S)N(CCCN1CCOCC1)Cc1cccnc1,inactive: -6.18%
3,Cc1cccc(NCC(=O)N/N=C\c2cccn2C)c1,inactive: 1.02%
4,O=C1/C(=C\c2ccc(O)c(O)c2)C(c2ccccc2)=NN1c1ccccc1,inactive: 7.55%
5,O=[N+]([O-])c1ccccc1S(=O)(=O)N(CC(O)CN1CCCCC1)c1ccccc1 (centres undefined),inactive: -7.91%
6,CC(=O)N(CCCCl)C(C#N)c1ccccc1 (centres undefined),inactive: 15.6%
7,Cc1cc(C)n(-c2nc(SCC(=O)O)c3c4c(sc3n2)COC(C)(C)C4)n1,inactive: 9.26%
8,C=CCn1cc(F)c(=O)n(CC=C)c1=O,inactive: 7.98%
9,COCCNC(=O)C1(C)CCCN(Cc2ccc(OCc3ccccc3)cc2)C1 (centres undefined),inactive: 11.8%
10,CCS(=O)(=O)c1nn2c(N)c(/C=C3/C=CC(=O)C(OC)=C3)c(=O)nc2s1,inactive: 11.8%
11,CCOC(=O)N1CCN(C(=O)C2CCC(=O)N(Cc3cccc(C(F)(F)F)c3)C2)CC1 (centres undefined),inactive: 11.2%
12,Cc1cc2c(cc1C)C(c1cccc([N+](=O)[O-])c1)CC(=O)N2 (centres undefined),inactive: 27.7%
13,Cc1ccccc1C(=O)NC1CCN(CC(=O)Nc2ccc(Br)cc2)CC1,inactive: -0.646%
14,CC(=O)c1ccc(NC(=O)c2ccc3c(c2)C(=O)N(c2ccccn2)C3=O)cc1,inactive: -4.84%
15,O=C(Nc1ccn(Cc2ccc(F)cc2)n1)c1ccncc1,inactive: 21.9%
16,Cc1cc(C)n2nc(C(=O)OCC(=O)N(CC(C)C)C3CCS(=O)(=O)C3)nc2n1 (centres undefined),inactive: 1.59%
17,CC1CC(C)CN(C(=O)CCNC(=O)Cn2ccc3ccccc3c2=O)C1 (centres undefined),inactive: 8.26%
18,CC1CCN(S(=O)(=O)c2ccc(C(=O)N3CCN(c4ccccc4F)CC3)cc2)CC1,inactive: -1.85%
19,COc1ccc(Cc2noc(CN(C)C3CC(C)(C)NC(C)(C)C3)n2)cc1OC,inactive: 10.3%
20,CCCCOP(=O)(OCCCC)C(O)c1ccc(N(C)C)cc1 (centres undefined),inactive: -7.23%
21,O=C(NCCN1CCOCC1)c1cc(Sc2cccc(Cl)c2)nc2ccccc12,inactive: -9.52%
22,CNc1ccccc1C(C)(C)c1cc(-c2cccc(Br)c2)no1,inactive: 4.16%
23,CCN(CC1COc2ccccc2O1)S(=O)(=O)c1ccc(C)cc1 (centres undefined),inactive: 4.73%

row,Structure (SMILES),growth rescue (activation)
1,COc1ccc(/C(C)=N/NC(=O)CNC(=O)c2cccnc2)cc1,inactive: 10%
2,NC1=NC(=O)/C(=C/c2cn(Cc3ccccc3)c3ccccc23)S1,inactive: -3.37%
3,CCOC(=O)c1nnn(-c2nonc2N)c1CSc1nnc(N)s1,inactive: 5.46%
4,COc1ccc(NC2CCCN(C(=O)COc3ccc(C)cc3)C2)cc1 (centres undefined),inactive: 15%
5,CC1=Nc2cc(C(=O)NCCCOC(C)C)ccc2Sc2ccccc21,inactive: 12.7%
6,Cc1ccc(-c2noc(CCC(=O)NC3CC3)n2)cc1,inactive: 20.9%
7,Cc1ccc(S(=O)(=O)/N=C2/NC(=O)/C(=C/c3ccccn3)S2)cc1,inactive: 28.3%
8,CNC(=S)NC1CC2CCCC(C1)N2Cc1ccc(C)cc1 (centres undefined),inactive: 1.54%
9,CCN1CCN(c2cc3c(nn2)Oc2ccccc2N3C)CC1,inactive: 3.93%
10,COc1cc(NC(=O)COc2ccc(-n3cnnn3)cc2)cc(OC)c1OC,inactive: -5.65%
11,COc1ccc(-c2noc(CCCC(=O)Nc3cccnc3)n2)cc1OC,inactive: 5.77%
12,O=C(Nc1nc(OCC(F)(F)F)cnc1/C=C\c1ccccc1)c1ccccc1,inactive: -8.95%
13,Cc1ccc(NC(=S)N2CCC(NC(=O)c3ccccc3)CC2)cc1,inactive: -2.82%
14,CN(C)Cc1c(O)ccc2c(-c3ccccc3)cc(=O)oc12,inactive: 10.5%
15,COCCOC(=O)c1c(NC(=O)CNCc2ccco2)sc(C(N)=O)c1C,inactive: 15.2%
16,O=C(COC(=O)/C=C/c1cccc(Cl)c1)Nc1ccc(N2CCOCC2)cc1,inactive: 17%
17,CC(C)CNC(=O)CCc1c[nH]c2ccccc12,inactive: -16.4%
18,CC(=O)c1sc(NC(=O)COc2ccc([N+](=O)[O-])cc2)nc1C,inactive: -0.691%
19,COc1ccc(/C=N/NC(=O)c2ccc3c(c2)NC(=O)C(C)(C)O3)cc1OC,inactive: 16.5%
20,CCSc1nsc(NC(=O)Nc2cccc(F)c2)n1,inactive: -2.5%
21,CC(C(=O)Nc1ccccc1)N(C)CCOc1ccc(Br)cc1 (centres undefined),inactive: 26.7%
22,CN(C)c1cccc(C(=O)NNC(=O)CN2C(=O)C3CC=CCC3C2=O)c1 (centres undefined),inactive: 10.8%
23,Nc1nc(SCC(=O)NNc2c(Cl)cc(Cl)cc2Cl)n[nH]1,inactive: -8.92%

row,Structure (SMILES),growth rescue (activation)
1,O=C(O)c1ccc(N2CCCS2(=O)=O)cc1,inactive: 0.673%
2,CCOc1ccccc1Nc1cc(C)c2cccc(C)c2n1,inactive: 14.8%
3,COc1ccc(C(=O)OCC(=O)N2C(C)CCCC2C)cc1[N+](=O)[O-] (centres undefined),inactive: 13.6%
4,O=C(CCSCCc1ccccn1)Nc1ccccn1,inactive: -3.54%
5,CS(=O)(=O)Nc1ccccc1C(=O)OCC(=O)NCc1cccs1,inactive: -1.64%
6,Cc1ccc(-n2c(-c3ccncc3)n[nH]c2=S)cc1,inactive: 5.09%
7,CC1CCC(NC(=O)CCCCn2c(=O)[nH]c3ccsc3c2=O)CC1 (centres undefined),inactive: -15.2%
8,COc1ccc(C(=O)O)cc1S(=O)(=O)N1CCN(Cc2ccc3c(c2)OCO3)CC1,inactive: -13%
9,CCOC(=O)C1=C(C)NC(C)=C(C(=O)OCC)C1C(=O)OCC(=O)N1CCCCC1CC (centres undefined),inactive: 4.35%
10,Cc1cccc(NC(=O)NC2(C)CCS(=O)(=O)C2)c1 (centres undefined),inactive: 18.3%
11,O=C(CCS(=O)(=O)c1ccccc1)Nc1ccccn1,inactive: 10.7%
12,Cc1ccc(NC(=O)CN(C)Cc2c(O)ccc3ccccc23)cc1,inactive: 21.6%
13,COc1ccc(CCNC(=S)NC2CCN(Cc3ccccc3)CC2)cc1,inactive: -12.3%
14,CCOC(=O)c1sc2nc(C)nc(NCCc3ccc(S(N)(=O)=O)cc3)c2c1C,inactive: 1.02%
15,O=C1C(c2cc(=O)c3ccccc3[nH]2)=C(O)c2ccccc21,inactive: -21.4%
16,N/C(=N\c1nc2ccccc2o1)NC(=O)c1ccccc1Br,inactive: 14%
17,CCCc1cc(=O)[nH]c(SCC(=O)Nc2ccc(C(=O)Nc3ccccc3OC)cc2)n1,inactive: 17%
18,Cc1ccc(N(C(=O)c2csnn2)C(C(=O)NC2CCCCC2)c2ccccn2)c(C)c1 (centres undefined),inactive: 13.9%
19,CCc1ccc(C2c3[nH]c4ccccc4c3CCN2C(=O)CN2CCN(CC)CC2)cc1 (centres undefined),inactive: -2.62%
20,O=C(Cn1c(=O)oc2cc(S(=O)(=O)N3CCCC3)ccc21)Nc1cccc(C(F)(F)F)c1,inactive: 9.88%
21,Cc1ccc(S(=O)(=O)N(C)CC(=O)N2CCC(C(N)=O)CC2)cc1,inactive: -14.6%
22,CCc1noc(C)c1C(=O)OCC(=O)c1ccc(NC(C)=O)cc1F,inactive: -20.7%
23,O=C(CN(C(=O)CNC(=O)c1ccco1)c1ccc(F)cc1)NC1CCCCC1,inactive: -1.22%

# From PubChem BioAssay AID1347073 (National Center for Advancing Translational Sciences (NCATS), 2019)
